Measurements as given in the supplement of paper PMC4967469.
pIC50: −log10 of the molar value. The IC50 comes from the fitted curve, where viability falls to half of the control; a fit beyond the top or the lowest dose is shown as a bound at that dose. The AUC spans the tested range (256-fold, ending at the top dose) of the same fit; the more sensitive the line, the further below 1. For part of these data: Any top dose called inferred was calculated from the reported fits. For part of these data: Where an entry number is given, a second screen of the drug exists; the two often differ.

What was measured:
Test in all cases: Viability of human cancer cell lines after 72 h of drug (GDSC screen)
[1] = compound: Cn1cnc2c(F)c(Nc3ccc(Br)cc3Cl)c(C(=O)NOCCO)cc21 [AZD6244]; conditions: top dose 4 µM; screen: GDSC drug entry 1498; top dose inferred
Protocol: (§1)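 Human cancer cell lines in 384-well plates, medium with 10% serum, drug for 72 h over a 256-fold dose range (nine 2-fold or five 4-fold steps up to the top dose). Adherent lines were fixed and stained with the nucleic acid dye Syto60, suspension lines read with resazurin; signal relative to control wells, capped at 0 and 100%. One two-parameter sigmoid per drug and line, fitted in a mixed model over all curves with the slope shared within a line.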

[2] = compound: NC(=O)C1CCCc2c1[nH]c1ccc(Cl)cc21 [EX-527]; conditions: top dose 20 µM
Protocol: as §1

[3] = compound: Nc1ccc(C(=O)Nc2cccc(-c3nc(N4CCOCC4)c4oc5ncccc5c4n3)c2)cn1 [YM201636]; conditions: top dose 5.12 µM; top dose inferred
Protocol: as §1

[4] = compound: N#CC(c1ccnc(NCCc2cccnc2)n1)c1nc2ccccc2s1 [AS601245]; conditions: top dose 8 µM; top dose inferred
Protocol: as §1

| Cell Line | AUC [1] | pIC50 [1] | AUC [2] | pIC50 [2] | AUC [3] | pIC50 [3] | AUC [4] | pIC50 [4] |
| --- | --- | --- | --- | --- | --- | --- | --- | --- |
| DU-145 (prostate, adherent) | 0.737 | 5.89 | 0.984 | < 4.70 | 0.953 | < 5.29 | 0.823 | 5.26 |
| Daoy (medulloblastoma, adherent) | 0.895 | < 5.40 | 0.985 | < 4.70 | 0.947 | < 5.29 | 0.806 | 5.44 |
| Detroit562 (head and neck, adherent) | 0.915 | < 5.40 | 0.988 | < 4.70 | 0.957 | < 5.29 | 0.817 | 5.37 |
| DoTc2-4510 (cervix, adherent) | 0.937 | < 5.40 | 0.988 | < 4.70 | 0.945 | < 5.29 | 0.729 | 5.67 |
| EBC-1 (lung squamous cell carcinoma, adherent) | 0.532 | 6.51 | 0.981 | < 4.70 | 0.913 | < 5.29 | 0.829 | 5.23 |
| ECC10 (stomach, suspension) | 0.908 | < 5.40 | 0.985 | < 4.70 | 0.966 | < 5.29 | 0.914 | < 5.10 |
| EFM-19 (breast, adherent) | 0.96 | < 5.40 | 0.977 | < 4.70 | 0.764 | 5.54 | 0.83 | < 5.10 |
| EFM-192A (breast, adherent) | 0.982 | < 5.40 | 0.986 | < 4.70 | 0.81 | 5.51 | 0.525 | 6.23 |
| EFO-21 (ovary, adherent) | 0.905 | < 5.40 | 0.97 | < 4.70 | 0.884 | < 5.29 | 0.79 | 5.27 |
| EFO-27 (ovary, adherent) | 0.873 | < 5.40 | 0.98 | < 4.70 | 0.943 | < 5.29 | 0.824 | 5.19 |
| EGI-1 (biliary tract, adherent) | 0.637 | 6.17 | 0.976 | < 4.70 | 0.943 | < 5.29 | 0.935 | < 5.10 |
| EN (endometrium, adherent) | 0.976 | < 5.40 | 0.976 | < 4.70 | 0.854 | < 5.29 | 0.905 | < 5.10 |
| EPLC-272H (lung squamous cell carcinoma, adherent) | 0.853 | 5.42 | 0.965 | < 4.70 | 0.904 | < 5.29 | 0.869 | < 5.10 |
| ESS-1 (endometrium, adherent) | 0.931 | < 5.40 | 0.99 | < 4.70 | 0.988 | < 5.29 | 0.842 | 5.32 |
| EW-7 (Ewing sarcoma, semi-adherent) | 0.98 | < 5.40 | 0.99 | < 4.70 | 0.621 | 6.18 | 0.867 | 5.24 |
| FTC-133 (thyroid, adherent) | 0.945 | < 5.40 | 0.97 | < 4.70 | 0.986 | < 5.29 | 0.961 | < 5.10 |
| FU97 (stomach, adherent) | 0.826 | 5.60 | 0.982 | < 4.70 | 0.842 | 5.42 | 0.847 | 5.21 |
| FU-OV-1 (ovary, adherent) | 0.893 | < 5.40 | 0.981 | < 4.70 | 0.857 | < 5.29 | 0.818 | 5.19 |
| G-292 Clone A141B1 (osteosarcoma, adherent) | 0.933 | < 5.40 | 0.974 | < 4.70 | 0.931 | < 5.29 | 0.746 | 5.40 |
| G-361 (melanoma, adherent) | 0.514 | 6.56 | 0.984 | < 4.70 | 0.928 | < 5.29 | 0.86 | 5.20 |
| G-401 (kidney, adherent) | 0.937 | < 5.40 | 0.965 | < 4.70 | 0.909 | < 5.29 | 0.768 | 5.48 |
| G-402 (soft tissue, adherent) | 0.908 | < 5.40 | 0.974 | < 4.70 | 0.828 | 5.33 | 0.822 | 5.16 |
| G-MEL (melanoma, adherent) | 0.169 | 7.60 | 0.982 | < 4.70 | 0.952 | < 5.29 | 0.894 | < 5.10 |
| GAK (melanoma, adherent) | 0.629 | 6.25 | 0.983 | < 4.70 | 0.891 | < 5.29 | 0.872 | 5.16 |
